Results reported in the supplement of paper PMC4723716.
± gives the uncertainty stated by the source. Whole data set: some 9,900 compounds, median “viability index relative to DMSO control” near 1, cut for the lowest 2% near 0.85. The list shows a part of the results.

test system: Plasmodium falciparum NF54 stage V gametocytes; test: viability index relative to DMSO control (fraction); higher = less gametocyte killing; conditions: 2.5 µM, library set: Broad Institute DOS, incubation time: 72 h
Outline: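 P. falciparum NF54 stage V gametocytes in serum-free screening medium (0.75% gametocytemia, 1.25% hematocrit, 10 µl) were incubated with compound at 2.5 µM in 1,536-well plates for 72 hr at 37°C under low oxygen. Then 3 µl of 2.5 µM MitoTracker Red CMXRos plus 0.13% saponin was added for one to two hours. One field per well was imaged, 20–70 µm2 red particles were counted, and the viability index was the count divided by the plate mean of DMSO wells.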

**Q.** How did the viability index turn out when COc1cccc(S(=O)(=O)N2C[C@H](O)COC[C@@H]3O[C@@H](CC(=O)NCCCN4CCOCC4)CC[C@H]32)c1 was run?
**A.** Its viability index is 0.9917 ± 0.008.

**Q.** N#C[C@H]1[C@@H](c2ccccc2C2=CCCC2)[C@H](CO)N1C(=O)Cc1ccncc1 was tested. Which viability index did it give?
**A.** The viability index was 1.07 ± 0.13.

**Q.** How did the viability index turn out when CN(C)C(=O)c1cccc(-c2ccc([C@@H]3[C@@H]4CN(Cc5ccccc5F)C[C@H]3N4)cc2)c1 was run?
**A.** Its viability index is 0.977 ± 0.016.

**Q.** Which viability index does the source give for CO[C@@H]1CN(C)C(=O)c2cc(NC(=O)C3CCCCC3)ccc2OC[C@H](C)N(Cc2cccnc2)C[C@@H]1C here?
**A.** The viability index was 1.12 ± 0.035.

**Q.** Which viability index does the source give for COc1ccc2c3c([C@H](CO)N(C[C@]33CCN(CC4CC4)CC3)C(=O)c3ccncc3)n(C)c2c1 here?
**A.** Its viability index is 1.06 ± 0.035.

**Q.** How did the viability index turn out when C/C=C/c1ccc2n(c1=O)C[C@H]1[C@H](CO)[C@@H](C(=O)Nc3nccs3)N(Cc3cc(F)ccc3F)[C@@H]21.C/C=C\c1ccc2n(c1=O)C[C@H]1[C@H](CO)[C@@H](C(=O)Nc3nccs3)N(Cc3cc(F)ccc3F)[C@@H]21 was run?
**A.** Its viability index is 1.07 ± 0.056.

**Q.** Which viability index does the source give for CCCNC(=O)N1CC2(C1)[C@H](c1ccccc1)[C@@H](CO)N2C(=O)CC1CC1 here?
**A.** The viability index was 1.11 ± 0.072.

**Q.** With COc1cccc(C#Cc2ccc([C@H]3[C@@H](C#N)N[C@@H]3CO)cc2)c1 as the molecule, how does the viability index read?
**A.** The viability index was 1.04 ± 0.026.

**Q.** How did the viability index turn out when C[C@@H]1CCCCO[C@@H](CN(C)C(=O)Nc2ccccc2)[C@H](C)CN([C@H](C)CO)C(=O)c2cc(NC(=O)Nc3ccccc3)ccc2O1 was run?
**A.** The viability index was 1.09 ± 0.059.

**Q.** Which viability index does the source give for CC(C)[C@@H]1COCc2cn(nn2)CCC[C@H](C)C(=O)N1 here?
**A.** The viability index was 1.02 ± 0.2.

**Q.** With COc1ccc2c3c([nH]c2c1)[C@@H](CO)N(CC1CCCCC1)C[C@]31CN(C1)C(=O)C1CCOCC1 as the molecule, how does the viability index read?
**A.** Its viability index is 1.02 ± 0.07.

**Q.** How did the viability index turn out when C[C@@H]1CN([C@@H](C)CO)C(=O)c2ccccc2-c2ccccc2CO[C@H]1CN(C)C(=O)[C@@H](Cc1ccccc1)N(C)C was run?
**A.** Its viability index is 1.042 ± 0.0029.

**Q.** O=S(=O)(c1ccccc1)N1C[C@@H]2[C@H](c3ccccc31)[C@H](CO)N2Cc1ccccn1 was tested. Which viability index did it give?
**A.** The viability index was 1.055 ± 0.0016.

**Q.** Which viability index does the source give for O=C(Nc1ccc(C(F)(F)F)cc1)N[C@@H]1C=C[C@H](CC(=O)N2CCCCC2)O[C@H]1CO here?
**A.** Its viability index is 1.06 ± 0.12.

**Q.** With COc1ccc(S(=O)(=O)Nc2cccc3c2O[C@@H](CN(C)CC2CCCCC2)[C@H](C)CN([C@@H](C)CO)C3=O)cc1 as the molecule, how does the viability index read?
**A.** The viability index was 0.926 ± 0.077.

**Q.** COc1ccc(CNC(=O)C[C@@H]2CC[C@@H](NC(=O)CN(C)C)[C@H](CO)O2)cc1 was tested. Which viability index did it give?
**A.** The viability index was 0.968 ± 0.016.

**Q.** For COc1ccccc1CNC(=O)C[C@H]1C[C@@H]2c3cc(NC(=O)C4CCC4)ccc3O[C@@H]2[C@@H](CO)O1, which viability index is on record?
**A.** The viability index was 1.13 ± 0.054.

**Q.** How did the viability index turn out when COc1ccc(S(=O)(=O)N(C)C[C@H]2Oc3ccc(N(C)C)cc3CC(=O)N([C@@H](C)CO)C[C@H]2C)cc1 was run?
**A.** Its viability index is 1 ± 0.084.

**Q.** Which viability index does the source give for COCC(=O)N1CC2(C1)[C@@H](c1ccc(-c3cccc(F)c3)cc1)[C@@H](CO)N2C(=O)C1CC1 here?
**A.** The viability index was 1.06 ± 0.032.

**Q.** COc1ccc(S(=O)(=O)N(C)C[C@H]2Oc3ccc(N(C)C)cc3CC(=O)N([C@H](C)CO)C[C@@H]2C)cc1 was tested. Which viability index did it give?
**A.** Its viability index is 0.945 ± 0.13.

**Q.** How did the viability index turn out when CC[C@@H]1C/C=C\C[C@@H](C(C)C)NC(=O)CCC(=O)N1 was run?
**A.** The viability index was 1.04 ± 0.07.

**Q.** With C/C=C/c1ccc([C@@H]2[C@@H](CO)N(C(C)=O)[C@@H]2CN(CC)C(=O)CN(C)C)cc1 as the molecule, how does the viability index read?
**A.** Its viability index is 1.08 ± 0.027.

**Q.** For O=C(c1cccc(F)c1)N1CC[C@@H]2[C@H](CO)Nc3ccc(C#CC4CC4)cc3[C@@H]21, which viability index is on record?
**A.** The viability index was 1.04 ± 0.033.

**Q.** For O=C(NCC[C@H]1CC[C@@H](NC(=O)c2ccccc2F)[C@@H](CO)O1)c1cnccn1, which viability index is on record?
**A.** Its viability index is 0.909 ± 0.13.

**Q.** With C[C@@H]1CCCCO[C@H](CN(C)S(=O)(=O)c2cn(C)cn2)[C@@H](C)CN([C@@H](C)CO)C(=O)c2cc(NC(=O)Nc3cccc4ccccc34)ccc2O1 as the molecule, how does the viability index read?
**A.** Its viability index is 1.12 ± 0.12.

**Q.** With COc1ccc2c3c([nH]c2c1)[C@@H](CO)N(CC1CC1)C[C@]31CN(C1)C(=O)c1ccc(F)cc1 as the molecule, how does the viability index read?
**A.** Its viability index is 1.02 ± 0.097.

**Q.** How did the viability index turn out when COCC(=O)N1[C@H](CO)[C@H](c2ccc(-c3ccccc3OC)cc2)C12CN(C(C)=O)C2 was run?
**A.** The viability index was 1.07 ± 0.077.

**Q.** Which viability index does the source give for C[C@H](CO)N1C[C@H](C)[C@@H](CN(C)C(=O)Nc2ccc(F)cc2)Oc2ccc(NC(=O)c3ccncc3)cc2CC1=O here?
**A.** Its viability index is 0.909 ± 0.074.

**Q.** CN(C)C(=O)c1ccc(-c2ccc([C@@H]3[C@H]4CNC[C@@H]3N4Cc3ccccn3)cc2)cc1 was tested. Which viability index did it give?
**A.** Its viability index is 1.02 ± 0.016.

**Q.** For O=C(C1CCOCC1)N1CC[C@@H]2[C@H]1c1cc(-c3cccc(F)c3)ccc1N[C@@H]2CO, which viability index is on record?
**A.** Its viability index is 1.1 ± 0.062.

**Q.** Which viability index does the source give for CCC(=O)N1[C@@H]2c3cccc(=O)n3C[C@H]1[C@H](CO)[C@H]2C(=O)NC1Cc2ccccc2C1 here?
**A.** The viability index was 1.01 ± 0.015.

**Q.** How did the viability index turn out when Cn1cnc(S(=O)(=O)N2C[C@@H]3N[C@H](C2)[C@H]3c2ccc(-c3ccccc3F)cc2)c1 was run?
**A.** Its viability index is 1.06 ± 0.046.

**Q.** For COc1ccc(NC(=O)N[C@H]2CC[C@@H](CCNC(=O)CN3CCOCC3)O[C@@H]2CO)cc1, which viability index is on record?
**A.** Its viability index is 0.999 ± 0.012.

**Q.** With O=C(C[C@H]1CC[C@@H]2NC[C@H](O)COC[C@H]2O1)N1CCc2ccccc2C1 as the molecule, how does the viability index read?
**A.** The viability index was 1.03 ± 0.059.

**Q.** For CC(C)NC(=O)N1CC[C@@H]2[C@H]1c1cc(-c3ccc(F)cc3)ccc1N(C)[C@H]2CO, which viability index is on record?
**A.** The viability index was 1.0672 ± 8.2e-05.

**Q.** How did the viability index turn out when CCCN1C[C@H](C)[C@@H](OC)CN(C)C(=O)c2cc(NC(=O)C3CCC3)ccc2OC[C@@H]1C was run?
**A.** The viability index was 1.06 ± 0.035.

**Q.** Which viability index does the source give for CO[C@H]1CN(C)C(=O)c2ccc(NS(=O)(=O)CC(F)(F)F)cc2OC[C@H](C)N(Cc2nccs2)C[C@H]1C here?
**A.** The viability index was 1.108 ± 0.0023.

**Q.** How did the viability index turn out when OC[C@@H]1[C@@H](c2ccccc2)C2(CN(Cc3ccccc3F)C2)N1Cc1ccccc1F was run?
**A.** Its viability index is 1.09 ± 0.039.

**Q.** Which viability index does the source give for C[C@@H]1CN([C@@H](C)CO)C(=O)CCCn2nncc2CO[C@@H]1CN(C)CC1CCCCC1 here?
**A.** Its viability index is 0.9717 ± 0.0072.

**Q.** For O=C(c1ccccc1)N1C[C@H]2[C@@H](c3ccccc31)[C@@H](CO)N2Cc1ccccn1, which viability index is on record?
**A.** Its viability index is 0.9895 ± 0.0093.

**Q.** For COCC(=O)N1C[C@@H]2[C@H](c3ccccc31)[C@@H](CO)N2C(=O)c1ccccc1F, which viability index is on record?
**A.** The viability index was 1.044 ± 0.0014.

**Q.** With CO[C@@H]1CN(C)C(=O)c2cc(NC(=O)Cc3ccccc3)ccc2OC[C@H](C)N(C(=O)c2ccccc2F)C[C@H]1C as the molecule, how does the viability index read?
**A.** The viability index was 1.06 ± 0.024.

**Q.** How did the viability index turn out when CO[C@H]1CN(C)C(=O)c2cc(NC(=O)c3ccc(F)cc3)ccc2OC[C@@H](C)N(C(=O)CC2CC2)C[C@@H]1C was run?
**A.** The viability index was 1.13 ± 0.12.

**Q.** With O=C(C[C@@H]1CC[C@H]2[C@@H](COC[C@@H](O)CN2CCc2ccccc2)O1)NCCCN1CCOCC1 as the molecule, how does the viability index read?
**A.** Its viability index is 1.06 ± 0.07.

**Q.** With C[C@H](CO)N1C[C@H](C)[C@@H](CN(C)Cc2ccc(Cl)c(Cl)c2)Oc2ccc(NC(=O)C3CCCCC3)cc2CC1=O as the molecule, how does the viability index read?
**A.** The viability index was 0.963 ± 0.066.

**Q.** CCCNC(=O)N1C[C@]2(CN(CC3CCCCC3)C2)c2c([C@@H]1CO)n(C)c1cc(OC)ccc21 was tested. Which viability index did it give?
**A.** Its viability index is 0.917 ± 0.037.
